In publication PMC12136788:
The list shows a part of the results.

B1: chr17:61683753:61683754:+_ENSG00000136463_ENST00000258975|hu_hu|motif|central (ssRNA)
RNA: GGGAGUUCUACAGUCCGACGAUCAAAAGAGUGACGAGCUCCUACAGCCAUCACUCCUCCAUUCUUAUUCAGGAUAUGUCGGAUGUCUGCUUGGCACUUGUGGCUACUGUUAGAUAAUGCCUCGAUGAGCAGAGAAGAGCCACCCAACAGAGGAUUGAGCAUCA
B2: chr17:65740002:65740003:+_ENSG00000130935_ENST00000581375|hu_hu|hu_hu_hu_mus_False|58_108 (ssRNA)
RNA: GGGAGUUCUACAGUCCGACGAUCAACCCGUUCUUGCUCCCUGGACGAACAGGAAGAUUCAUAUUAAAAAAAAUAUAUGUCUAUGAAGUUAGGUGUGGUGGCCACACCUUUACUCCCAGCACUUUGGGAGGUGGAUCUCUGAGUCAACAGAGGAUUGAGCAUCA
B3: chr2:5814250:5814251:-_ENSMUSG00000025816_ENSMUST00000102981|mus_hu|mus_mus_mus_hu_True|28_28 (ssRNA)
RNA: GGGAGUUCUACAGUCCGACGAUCUUCCUUUCCGGUUUCUGAAUUUCUGGUAGAACUGCACAGAAUGGUUUGAUAACUUCUAAAAAUUUGAUGCCCAUGGCUGCUGCUCAGCACACCCAGGGGGAAACCGCGGCCUCGGCGCUGCAACAGAGGAUUGAGCAUCA
B4: chr1:161326577:161326578:+_ENSG00000143252_ENST00000367975|hu_mus|FALSE|FALSE (ssRNA)
RNA: GGGAGUUCUACAGUCCGACGAUCUAGCAAGUGUCGGAUCCCAUUCAGUGAGUGGUACAUGAGCGGGAAGACAAGCACAAACUUAGCCGAGUAGAUCAGUGUUGGCCCCAAACACAGGGACUUCACAAACAUCAAAUAUGACUCCAACAGAGGAUUGAGCAUCA
B5: chr15:98516890:98516891:+_ENSG00000140450_ENST00000268042|hu_hu|FALSE|FALSE (ssRNA)
RNA: GGGAGUUCUACAGUCCGACGAUCAAUAAUAAAAAUAAGAAAGCUUUCAUAGUUAACUUACCAAAAACAUAACGCUUGCCUAUUGUUUCUUACUGUGCAAAACAAAAACAAAGUUUUGCCCACAGAAGGAUUUUGUGCACCAAACAACAGAGGAUUGAGCAUCA
B6: chr19:16212804:16212805:+_ENSG00000167460_ENST00000300933|hu_mus|hu_hu_hu_mus_False|8_68 (ssRNA)
RNA: GGGAGUUCUACAGUCCGACGAUCAACAAUUCUGGAGUGAAGGAAAGAUGUAACAUGGAACAGCAUUCCAUCUAUUACAGAAGGCACAUGGGCAACAAUGAUCACCCCAGCAUUCUCGCUUGGAAUGUGCUUGAGAAAUCUGUUCAACAGAGGAUUGAGCAUCA
B7: 68318318_68318438_971_3pUTR_ENSMUSG00000048922_ENSMUST00000150006|mouse|control|control (ssRNA)
RNA: GGGAGUUCUACAGUCCGACGAUCCUUCCACAUACAGGAGUCGCUGGAGACCUGGUGGCGGUGGUCUUAGCGGAGGGGCUGCUGCUCCCGCACAUAGGAGUCUCUGGAGACCUGGUGGCAGUGGCUGUGCCUGAGCUCAGUGGUCAACAGAGGAUUGAGCAUCA
B8: 56705951_56706333_2214_CDS_ENSMUSG00000042625_ENSMUST00000075510|mouse|control|control (ssRNA)
RNA: GGGAGUUCUACAGUCCGACGAUCCUGCAUCCGUUCCCGCUGCAAGCGAGCCUUCUCCCGUCGCUCCUGGAAGGCAUCCAGACGCUGCUCCCGCUCUCGCUGCUCCCGCUCCCGUCUUCGCUCUGUCUCCCGGAUUUCACGCUCCAACAGAGGAUUGAGCAUCA
B9: chr8:95500983:95500984:-_ENSG00000164944_ENST00000437199|hu_hu|hu_hu_hu_mus_True|28_38 (ssRNA)
RNA: GGGAGUUCUACAGUCCGACGAUCAGAACACAUCUAUCGAGUAAAGGACCGUACAUGACGGCCUCUACCACUGCCUCCACUAACAAACUUUCCUCUCUGAGCCUCCACUGCCGCUAUUGUACUAGCCCAGGACGGUCCCAGGCCCAACAGAGGAUUGAGCAUCA
B10: chr10:18963012:18963013:+_ENSG00000165997_ENST00000377275|hu_hu|motif|central (ssRNA)
RNA: GGGAGUUCUACAGUCCGACGAUCCCCUUCUCCUGUGAGAGCACAGCAGGAUUGAAUGUGCCAUGGAUGAUCCUUAAUUGAACGGAGGGUGAGGUAUUUCGAGAUUUCAGCUGCUGUCAUACACCCUUUCAUAUCCUGUUUAUUCAACAGAGGAUUGAGCAUCA
B11: chr8:67197462:67197463:-_ENSMUSG00000031604_ENSMUST00000034015|mus_mus|motif|central (ssRNA)
RNA: GGGAGUUCUACAGUCCGACGAUCUCCGAACUGACCAGUGUAUGUAAAAGGCUUAAAAGGCAACGUCAACUUCAGCCUCCGGUGGCAUGAAGUGGUGAGUUGUACAUUAAUACUUCCUCCAGUUCCCGAAACCUUUUGGUGAGGCAACAGAGGAUUGAGCAUCA
B12: chr18:35731649:35731650:+_ENSMUSG00000037236_ENSMUST00000166793|perfect_dup|motif|central (ssRNA)
RNA: GGGAGUUCUACAGUCCGACGAUCCCCUACCGAGAGAUGACUGCUGGAAUGACUUGGACAUUGUAGAACUAUCUCUUGUCGGUUUUAUAGAUCAAAAAAAAAAAAAAAAGUUUUAAAAGAUGGCCAAAAAGAAAGCUCAAGCUACAACAGAGGAUUGAGCAUCA
B13: chr22:19452774:19452775:-_ENSG00000070010_ENST00000399523|hu_hu|hu_hu_hu_mus_False|1_58 (ssRNA)
RNA: GGGAGUUCUACAGUCCGACGAUCCUUCUCAUUGUAGUUGAUAGCAAUCACAUCUCCAGUCGUCAGACAGGCGAAGUUCCUAAGUGCAUUUUCUAAUACCGCUUUAGGGUUGGUAAUAUCCAGGAAGUCUGGGCUCUGAGGUUGCAACAGAGGAUUGAGCAUCA
B14: chr9:79619141:79619142:-_ENSMUSG00000032328_ENSMUST00000034878|mus_hu|motif|central (ssRNA)
RNA: GGGAGUUCUACAGUCCGACGAUCAAAUUAAAUGGUAAUGUCAGCUGUAUUACUACUGUUUCUAUAUUUAUGAUUAAUUACGGGCAGUACAACUCCCAGAAGGAAGGAGAUGGAUCCAACAGCGAUGUAAGCAAUCCCCAAAAACAACAGAGGAUUGAGCAUCA

target: T1, UNK ZnF1-3 (human, UniProt Q9C0B0 31-174); assay: nsRBNS (natural sequence RNA bind-n-seq); RBNS binding buffer (assumed for nsRBNS): 25 mM Tris pH 7.5, 150 mM KCl, 3 mM MgCl2, 0.01% Triton X-100, 500 ug/ml BSA, 20 U/ml SUPERase-In, 4 C; UNK is unkempt and MSI1 is Musashi-1; names of the RNAs are library labels; protein concentration not given here; high values mean tight binding
T1 sequence: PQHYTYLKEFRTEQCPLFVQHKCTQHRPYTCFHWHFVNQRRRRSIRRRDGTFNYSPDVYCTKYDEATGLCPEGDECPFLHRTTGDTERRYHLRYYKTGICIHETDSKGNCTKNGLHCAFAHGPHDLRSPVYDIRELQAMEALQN

Binder	binding signal [enrichment R]
B1	0.864
B2	1.14
B3	1.07
B4	0.978
B5	1.5
B6	0.955
B7	1.07
B8	0.771
B9	0.924
B10	1.17
B11	0.98
B12	2.32
B13	0.913
B14	2.19
